Data from the supplement of paper PMC7826260.
The list shows a part of the results. Viral Rep nickase domains cut single-stranded DNA in vitro at 3 µM enzyme and 37 °C for 1 h; the strands have 90 letters, of which the middle is given. Values are log2 of uncut reads against the no-enzyme pool; uncut sequences lie near 0, cut ones below; no hit call is given. The scaling is to total reads, so uncut sequences can rise above 0 when many others are cut.

Legend:
Experiment in all cases: uncleaved DNA left, log2 of reads against the no-enzyme library (log2 ratio); higher = less cleavage (more negative = more Rep cleavage of the k-mer); sequences stand for … in CTCGTCCG…ACCGGAGA
[1] = test system: T1, Rep nickase domain of Muscovy duck circovirus
T1 sequence (protein, residues 1-111, tag omitted): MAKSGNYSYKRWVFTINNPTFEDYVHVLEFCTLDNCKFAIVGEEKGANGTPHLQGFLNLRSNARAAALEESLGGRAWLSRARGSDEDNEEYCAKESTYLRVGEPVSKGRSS
Description: (§1)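 A pool of 90-nt single-stranded DNAs with seven random bases just before the constant AC of the nick site (name = the seven bases) was cut by 3 µM recombinant His6-SUMO-tagged Rep nickase domain (300 nM DNA, 50 mM HEPES pH 8.0, 50 mM NaCl, 1 mM MnCl2, 1 h, 37 °C, three replicates). Uncut DNA was amplified and sequenced.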

[2] = test system: T2, Rep nickase domain of banana bunchy top virus
T2 sequence (protein, residues 1-94, tag omitted): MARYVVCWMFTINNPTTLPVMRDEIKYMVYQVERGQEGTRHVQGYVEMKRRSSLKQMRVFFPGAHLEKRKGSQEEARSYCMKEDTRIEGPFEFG
Description: as §1

[3] = test system: T3, Rep nickase domain of cabbage leaf curl virus
T3 sequence (protein, residues 1-116, tag omitted): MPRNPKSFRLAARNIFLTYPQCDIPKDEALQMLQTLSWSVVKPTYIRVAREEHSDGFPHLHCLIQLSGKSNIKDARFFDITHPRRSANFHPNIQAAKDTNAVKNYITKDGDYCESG
Description: as §1

[4] = test system: T4, Rep nickase domain of chickpea chlorotic dwarf virus
T4 sequence (protein, residues 1-124, tag omitted): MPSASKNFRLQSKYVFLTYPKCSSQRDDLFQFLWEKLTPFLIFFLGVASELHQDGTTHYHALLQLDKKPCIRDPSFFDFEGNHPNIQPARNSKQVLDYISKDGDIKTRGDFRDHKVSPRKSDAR
Description: as §1

[5] = test system: T5, Rep nickase domain of faba bean necrotic yellows virus
T5 sequence (protein, residues 1-98, tag omitted): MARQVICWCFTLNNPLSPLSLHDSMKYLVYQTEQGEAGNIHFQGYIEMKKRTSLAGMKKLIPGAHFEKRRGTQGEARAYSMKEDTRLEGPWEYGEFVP
Description: as §1

[6] = test system: T6, Rep nickase domain of maize striate mosaic virus
T6 sequence (protein, residues 1-117, tag omitted): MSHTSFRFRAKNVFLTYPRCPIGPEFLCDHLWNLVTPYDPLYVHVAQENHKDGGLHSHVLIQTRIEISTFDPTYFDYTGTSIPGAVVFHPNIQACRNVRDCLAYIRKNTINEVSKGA
Description: as §1

[7] = test system: T7, Rep nickase domain of porcine circovirus 2
T7 sequence (protein, residues 2-116, tag omitted): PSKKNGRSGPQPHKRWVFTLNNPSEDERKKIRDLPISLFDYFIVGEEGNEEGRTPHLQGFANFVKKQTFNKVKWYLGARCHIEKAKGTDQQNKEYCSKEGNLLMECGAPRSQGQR
Description: as §1

[8] = test system: T8, Rep nickase domain of tomato yellow leaf curl virus
T8 sequence (protein, residues 1-136, tag omitted): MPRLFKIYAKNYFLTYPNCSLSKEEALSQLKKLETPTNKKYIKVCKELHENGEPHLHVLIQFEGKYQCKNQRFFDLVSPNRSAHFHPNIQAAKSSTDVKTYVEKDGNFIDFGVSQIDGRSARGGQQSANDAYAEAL
Description: as §1

[9] = test system: T9, Rep nickase domain of wheat dwarf virus
T9 sequence (protein, residues 1-137, tag omitted): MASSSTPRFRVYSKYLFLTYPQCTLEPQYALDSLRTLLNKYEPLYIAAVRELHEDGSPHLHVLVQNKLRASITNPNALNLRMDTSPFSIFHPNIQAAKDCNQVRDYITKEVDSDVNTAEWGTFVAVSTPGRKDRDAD
Description: as §1

| Sequence | uncleaved DNA left (log2) [1] | uncleaved DNA left (log2) [2] | uncleaved DNA left (log2) [3] | uncleaved DNA left (log2) [4] | uncleaved DNA left (log2) [5] | uncleaved DNA left (log2) [6] | uncleaved DNA left (log2) [7] | uncleaved DNA left (log2) [8] | uncleaved DNA left (log2) [9] |
| --- | --- | --- | --- | --- | --- | --- | --- | --- | --- |
| TTTACCT | -0.102 | 0.0966 | -0.00325 | -2.36 | 0.0287 | 0.118 | -1 | 0.0885 | -0.000653 |
| AGGCACG | -0.0489 | 0.0823 | -0.538 | -0.39 | 0.0244 | -0.855 | 0.0913 | -0.0474 | -0.136 |
| AATTCTT | -3.28 | -3.64 | -1.39 | -2.84 | -0.6 | -0.735 | -4.45 | -0.0594 | -0.512 |
| GTACTGG | 0.0953 | 0.113 | 0.444 | 1.01 | 0.00773 | 1.38 | 0.0798 | 0.0329 | 0.102 |
| GAAGACT | 0.0919 | 0.162 | 0.373 | 0.531 | 0.0409 | 1.84 | 0.276 | 0.075 | 0.233 |
| CAGCATT | 0.075 | -0.268 | -0.477 | -2.56 | -0.282 | -0.326 | -3.3 | -0.0293 | -0.0611 |
| CTTTATT | -3.25 | -3.34 | -0.787 | -3 | -0.307 | -0.682 | -3.91 | -0.0238 | -0.898 |
| GGTATAG | -0.022 | 0.0762 | 0.113 | 0.579 | 0.0026 | -0.0418 | 0.16 | 0.175 | 0.104 |
| TGCACTA | -0.0357 | 0.0426 | -0.0351 | -0.177 | -0.022 | 0.0631 | -0.129 | 0.00156 | 0.108 |
| CTATTTC | -0.0361 | -0.153 | -0.189 | -0.401 | -0.0441 | -0.932 | -0.0343 | -0.0475 | -0.118 |
| ATAAACA | 0.0802 | 0.0296 | 0.0624 | -2.26 | 0.0716 | -0.714 | 0.0421 | -0.00141 | 0.0747 |
| ACGGTTT | -0.111 | -0.218 | -0.106 | -1.5 | -0.107 | 0.382 | -0.118 | -0.197 | -0.251 |
| GGTTTTT | -0.933 | -0.0811 | 0.428 | 0.735 | 0.00611 | 1.73 | -1.66 | 0.0979 | 0.183 |
| AATGCTG | -0.0474 | 0.0137 | 0.307 | 1.73 | -0.00677 | 1.65 | 0.103 | -0.21 | -0.00906 |
| AACCTTC | -0.0486 | -0.0304 | -0.068 | -0.671 | -0.0867 | -0.673 | -0.322 | -0.0851 | -0.0597 |
| ACACCCG | -0.0638 | -0.031 | -0.879 | -0.278 | 0.0373 | -0.83 | 0.067 | -0.128 | -0.122 |
| TGCGCGC | -0.268 | -0.118 | -0.658 | -0.728 | -0.101 | -0.911 | -0.0369 | -0.214 | -0.188 |
| GTATTAA | 0.00165 | 0.211 | 0.376 | 0.898 | 0.089 | 1.8 | 0.134 | 0.124 | 0.288 |
| GCGAGAA | 0.0414 | 0.0855 | 0.392 | 0.763 | 0.195 | 0.537 | 0.0243 | 0.0172 | 0.092 |
| TGGGGAC | 0.0784 | 0.236 | 0.977 | 1.9 | -0.0338 | 2.35 | 0.224 | 0.0501 | 0.304 |
| CGCGCGG | -0.0838 | -0.0321 | 0.445 | 1.15 | -0.1 | 1.59 | 0.156 | -0.274 | -0.125 |
| TGTCCTT | -0.099 | -0.0563 | -0.0545 | -1.14 | -0.186 | 0.461 | -0.536 | -0.0379 | -0.0318 |
| AGCTGTA | 0.00216 | -0.0189 | 0.247 | 1.36 | -0.112 | 1.5 | -0.136 | -0.149 | 0.0619 |
| ATCTTTG | 0.0913 | 0.0984 | -0.518 | -0.437 | 0.101 | -1.03 | 0.213 | 0.0445 | 0.146 |
| TGGTACC | -0.189 | 0.0304 | -0.346 | -0.0775 | 0.00242 | 1.2 | -2.76 | 0.0364 | -0.497 |
| CATGTGG | 0.08 | -0.0658 | -0.242 | -0.119 | -0.105 | -0.835 | -0.0439 | -0.0864 | -0.168 |
| CGGTCCT | -0.388 | -0.128 | 0.00986 | -0.704 | -0.12 | 0.503 | -1.36 | -0.0931 | -0.0362 |
| TTCTTCA | -0.0936 | -0.0687 | 0.121 | -0.959 | 0.0115 | -0.083 | -0.293 | 0.0323 | 0.0101 |
| TCGAAAA | -0.0106 | 0.096 | 0.123 | 0.0313 | 0.0137 | -0.448 | -0.0201 | 0.104 | 0.0683 |
| GCCAACG | -0.199 | -0.134 | -0.765 | -0.607 | -0.265 | -1.08 | 0.0481 | -0.198 | -0.211 |
